Source: US10299477B2 (priority 2015, dated 2019)

How the values were obtained:
Type in all cases: in vivo
[1] = tested on: Botrytis cinerea; experiment: Test Example B: Gray mold on tomato; settings: for Test B (control value class): gray mold on tomato, Botrytis cinerea; for Test B (control value class, gray mold on tomato): in vivo
From the text: [Test Example B] Gray Mold on Tomato
Seeds of a test plant (tomato variety: Oogata Fukuju) were planted followed by cultivating until three to five first leaves (true leaves) appeared.

[2] = tested on: Alternaia brassicicola; experiment: Test Example C: Alternaria sooty spot on cabbage; settings: for Test C (control value class): Alternaria sooty spot on cabbage; for Test C (control value class, Alternaria sooty spot on cabbage): in vivo
From the text: [Test Example C] Alternaria Sooty Spot on Cabbage
Seeds of a test plant (cabbage variety: Shikidori) were planted followed by cultivating until the cotyledons extended.

[3] = tested on: Blumeria graminis f sp. hordei; experiment: Test Example D: Powdery mildew on barley; settings: for Test D (control value class): powdery mildew on barley; for Test D (control value class, powdery mildew on barley): in vivo
From the text: [Test Example D] Powdery Mildew on Barley
After the sprayed dilutions were dried, conidia of Blumeria graminis f sp. hordei were inoculated to the plants by shaking off.

[4] = tested on: Puccinia recondita; experiment: Test Example E: Brown rust on wheat; settings: for Test E (control value class): brown rust on wheat, Puccinia recondita; for Test E (control value class, brown rust on wheat): in vivo
From the text: [Test Example E] Brown Rust on Wheat

[5] = tested on: Plasmopara viticola; experiment: Test Example G: Downy mildew on vine; settings: for Test G (control value class): downy mildew on vine, Plasmopara viticola, 250 ppm spray; for Test G (control value class, downy mildew on vine): 250 ppm, sprayed 2.5 ml/pot before inoculation, evaluated 7-10 days after inoculation
From the text: [Test Example G] Downy Mildew on Vine
Seeds of a test plant (grape variety: Neomuscat) were planted followed by cultivating until three to four first leaves appeared. […] After the sprayed dilutions were dried, a zoosporangia suspension (1-2×10^4 zoosporangia/ml) of Plasmopara viticola was inoculated to the plants by spraying.

[6] = 250 ppm spray, preventive, control value class

SMILES | Test B (control value class) ([1]; 250 ppm spray) | Test C (control value class) ([2]; 250 ppm spray) | Test D (control value class) ([3]; 250 ppm spray) | Test E (control value class) ([4]; 250 ppm spray) | Test G (control value class) ([5]; 7-10 days after inoculation) | Test B (control value class, gray mold on tomato) [1] | Test C (control value class, Alternaria sooty spot on cabbage) [2] | Test D (control value class, powdery mildew on barley) [3] | Test E (control value class, brown rust on wheat) [4] | Test G (control value class, downy mildew on vine) [5] | further results
CCn1c(-c2c(F)cccc2F)c(-c2cc(F)cc(F)c2Cl)cc(Cl)c1=O [Compound 552] | H (H shows more than 50% of control values) | H (H shows more than 50% of control values) | H (H shows more than 50% of control values) | H (H shows more than 50% of control values) | L (L shows 50% or less of control values) | – | – | – | – | – | –
CCn1c(-c2c(F)cccc2F)c(-c2cc(OCC3CC3)ccc2Cl)ccc1=O [Compound 212] | – | – | – | – | – | – | – | – | – | – | Test B control value (gray mold on tomato) [1, 6]: H (H shows more than 50% of control values); Test C control value (Alternaria sooty spot on cabbage) [2, 6]: H (H shows more than 50% of control values); Test D control value (powdery mildew on barley) [3, 6]: H (H shows more than 50% of control values); Test E control value (brown rust on wheat) [4, 6]: H (H shows more than 50% of control values); Test G control value (downy mildew on vine) ([5]; 250 ppm spray (2.5 ml/pot), preventive, 7-10 days after inoculation, control value class): H (H shows more than 50% of control values)
COc1ccc(Cl)c(-c2ccc(=O)n(N)c2-c2c(F)cccc2F)c1 [Compound 422] | H (H shows more than 50% of control values) | H (H shows more than 50% of control values) | L (L shows 50% or less of control values) | H (H shows more than 50% of control values) | L (L shows 50% or less of control values) | – | – | – | – | – | –
CCn1c(-c2c(F)cc(OC)cc2F)c(-c2cc(F)cc(F)c2F)cc(Cl)c1=O [Compound 546] | H (H shows more than 50% of control values) | H (H shows more than 50% of control values) | H (H shows more than 50% of control values) | H (H shows more than 50% of control values) | L (L shows 50% or less of control values) | – | – | – | – | – | –
CCn1c(-c2c(F)cc(C)cc2F)c(-c2cc(F)ccc2Cl)cc(C)c1=O [Compound 710] | – | – | – | – | – | H (H shows more than 50% of control values) | H (H shows more than 50% of control values) | H (H shows more than 50% of control values) | H (H shows more than 50% of control values) | L (L shows 50% or less of control values) | –
COc1cc(F)c(-c2c(-c3cccc(OC)c3Cl)cc(Br)c(=O)n2C)c(F)c1 [Compound 669] | – | – | – | – | – | H (H shows more than 50% of control values) | H (H shows more than 50% of control values) | L (L shows 50% or less of control values) | H (H shows more than 50% of control values) | L (L shows 50% or less of control values) | –
CCn1c(-c2c(F)cccc2F)c(-c2ccc(Cl)cc2F)cc(Cl)c1=O [Compound 417] | L (L shows 50% or less of control values) | H (H shows more than 50% of control values) | H (H shows more than 50% of control values) | H (H shows more than 50% of control values) | L (L shows 50% or less of control values) | – | – | – | – | – | –
CCn1c(-c2c(F)cccc2F)c(-c2ccc(OC)cc2Cl)ccc1=O [Compound 735] | – | – | – | – | – | H (H shows more than 50% of control values) | H (H shows more than 50% of control values) | H (H shows more than 50% of control values) | H (H shows more than 50% of control values) | H (H shows more than 50% of control values) | –
CCn1c(-c2c(F)cccc2F)c(-c2cc(F)ccc2Cl)cc(F)c1=O [Compound 512] | H (H shows more than 50% of control values) | H (H shows more than 50% of control values) | H (H shows more than 50% of control values) | H (H shows more than 50% of control values) | H (H shows more than 50% of control values) | – | – | – | – | – | –
